Some of the results follow. Further columns of the screen follow, without active or inactive calls.

Assay in all cases: Primary Screen for Target Class Profiling of Small Molecule Inhibitors of Methyltransferases
Test [1] deals with Glycine N-methyltransferase (Homo sapiens) (UniProt Q14749). Particulars: purified enzyme, MTase-Glo SAH luminescence; measured here: GNMT inhibition; at 40 µM; stronger effect = lower value. The text has this:
(§1) PI: Matthew D. Hall Ph.D. and Quinlin M. Hanson Ph.D.
(§2) National Center for Advancing Translational Sciences (NCATS)
(§3) National Institute of Health (NIH), Rockville, MD
(§4) Target class profiling (TCP) is a chemical biology approach amenable to investigating understudied biological targets. TCP is achieved by developing a generalizable assay platform and applying it to screen a curated set of compound libraries against representative members of a target class. Small molecule methyltransferases (SMMTase) are a subclass of methyltransferase that act on metabolites to modulate signaling pathways, metabolize xenobiotics, or balance the available methyl pool. We screened four curated libraries totaling 27,574 unique compounds against the SMMTases nicotinamide N-methyltransferase (NNMT), phenylethanolamine N-methyltransferase (PNMT), histamine N-methyltransferase (HNMT), glycine N-methyltransferase (GNMT), catechol O-methyltransferase (COMT), and guanidinoacetate N-methyltransferase (GAMT). The data generated by this TCP can be leveraged for informed tool molecule development. For example, in the associated publication we identified a chemotype of HNMT-selective inhibitors. Additionally, we identified a putative SMMTase-selective inhibitor with potential as a tool molecule for studying broader methyltransferase biology.
(§5) High-through put screening assays were developed at the National Center for Advancing Translational Science (NCATS) for the enzymes NNMT, PNMT, HNMT, GNMT, COMT, and GAMT. Enzymatic activity was measured as a function of SAM cofactor conversion using the MTase Glo kit (Promega) for all enzymes. All assays were performed in 1536-well format with substrates and SAM concentrations at KM values. Enzyme concentration and assay timing were optimized for 10-20% SAM conversion. Initial screening of 27,574 compounds was done as single-point assays using the highest compound concentration (40 uM). […] These compounds were replated in 11-point dose response and assayed against NNMT, PNMT, HNMT, GNMT, COMT, GAMT, and a counter-assay. The IC50 and efficacy (maximal response) values were determined for each dose-response curve. These values are also accounted for in the area under the curve (AUC) values.
(§6) PROTOCOL TABLE (as described by Inglese J, Shamu CE and Guy RK. 2007)
(§7) SEQUENCE No. (e.g., 1, 2, 3, etc.); […] (e.g., Cells, Incubation, Reagent, etc.); VALUE; DESCRIPTION.
(§8) 1; Reagent; 2 uL; SMMTase Enzyme (2x) in reaction buffer, columns 1- 48.
(§9) 2; Reagent; 1 uL; SAM (4x) in reaction buffer, columns 1-48.
(§10) 3; Controls; 23 nL; DMSO in column 4; sinefungin in DMSO (0 uM - 40 uM) in 7-point 1:2 dilution series (n = 2) in column 2.
(§11) 4; Compounds; 23 nL; Columns 5-48.
(§12) 5; Reagent; 1 uL; Substrate (4x) in reaction buffer, columns 2-48.
(§13) 6; Time; 20-30 min; Incubation.
(§14) 7; Reagent; 1 uL; MTase-Glo reagent (5X), columns 1-48.
(§15) 8; Time; 30 min; Incubation.
(§16) 9; Reagent; 5 uL; MTase-Glo Detection reagent, columns 1-48.
(§17) 10; Time; 30 min; Incubation, luminescence evolution.
(§18) 11; Detection; Luminescence; ViewLux uHTS Microplate Imager (PerkinElmer).
(§19) NOTES (numbers refer to Sequence numbers above)
(§20) 1, 2, 5. White Medium Binding Greiner 1536-well plates (Cat #789175-F, Greiner Bio-One, Monroe, NC); Reaction buffer: 50 mM Tris, pH 8.0, 3 mM MgCl2, 1 mM EDTA, 50 mM NaCl, 1 mM DTT, and 0.1 mg/mL BSA. Evaporation was prevented by covering assay plates with metal lids containing holes to allow gas diffusion.
(§21) 1. Six SMMTase were profiled: HNMT, GNMT, PNMT, COMT, NNMT, GAMT
(§22) 5. The corresponding substrate was used for each enzyme: HNMT - 5.3 uM Histamine; GNMT - >500 uM Glycine; PNMT - 16.2 uM Norephinephrine; COMT - 13.7 uM Norephinephrine; NNMT - 3.8 uM Nicotinamide; GAMT - 2.5 uM Guanidinoacetate.6, 8, 10. Room temperature
(§23) 6. Final reaction conditions: 10 nM COMT, 5 uM SAM, 15 uM norepinephrine, 50 mM Tris, pH 8.0, 3 mM MgCl2, 1 mM EDTA, 50 mM NaCl, 1 mM DTT, and 0.1 mg/mL BSA; refer to tables 2 and S1 for specific timing.
8. […]

The target of test [2] is Guanidinoacetate N-methyltransferase (Homo sapiens) (UniProt Q14353). Particulars: purified enzyme, MTase-Glo SAH luminescence; measured here: GAMT inhibition; at 40 µM; stronger effect = lower value.
Text: as §1, §2, §3, §4, §5, §6, §7, §8, §9, §10, §11, §12, §13, §14, §15, §16, §17, §18, §19, §20, §21, §22, §23
8. […]

Test [3] has as its target Histamine N-methyltransferase (Homo sapiens) (UniProt P50135). The note with it: purified enzyme, MTase-Glo SAH luminescence; measured here: HNMT inhibition; at 40 µM; stronger effect = lower value.
Text: as §1, §2, §3, §4, §5, §6, §7, §8, §9, §10, §11, §12, §13, §14, §15, §16, §17, §18, §19, §20, §21, §22, §23
8. […]

Test [4] has as its target Nicotinamide N-methyltransferase (Homo sapiens) (UniProt P40261). Particulars: purified enzyme, MTase-Glo SAH luminescence; measured here: NNMT inhibition; at 40 µM; stronger effect = lower value.
Text: as §1, §2, §3, §4, §5, §6, §7, §8, §9, §10, §11, §12, §13, §14, §15, §16, §17, §18, §19, §20, §21, §22, §23
8. […]

The target of test [5] is Phenylethanolamine N-methyltransferase (Homo sapiens) (UniProt P11086). Particulars: purified enzyme, MTase-Glo SAH luminescence; measured here: PNMT inhibition; at 40 µM; stronger effect = lower value.
Text: as §1, §2, §3, §4, §5, §6, §7, §8, §9, §10, §11, §12, §13, §14, §15, §16, §17, §18, §19, §20, §21, §22, §23
8. […]
% is scaled to controls: 0 for no effect and ±100 for the full control effect.

Consider `N#Cc1ccnc(-c2nnc3ccc(NC4CC4)nn23)c1`, for which the activity change, negative = inhibition in test [1] was -9.13%; in test [2], -1.36%; in test [3], -35.8%; in test [4], -9.17%; in test [5], -7.47%.
As to `Cc1ccc(C)c(NS(=O)(=O)c2cc3c(cc2C)n(C)c(=O)n3C)c1`, the activity change, negative = inhibition is 10.2% in test [1]; 2.66% in test [2]; 6% in test [3]; -2.11% in test [4]; 5.3% in test [5].
For `COC(=O)[C@@H](Cc1c[nH]c2ccccc12)NC(=O)[C@@H]1CN(C(=O)Nc2ccccc2)CCN1C(=O)NC(C)C`, in that order: -2.79%, 0.776%, -0.924%, 0.763% and 17.7%.
In the case of `CCCN1C(=O)c2c(C(=O)NCCc3ccc(OC)cc3OC)ncn2CC1(C)C(=O)NCc1ccc(C)cc1` (stereo not given), the activity change, negative = inhibition in test [1] worked out at 1.14%; in test [2] it was 3.01%; in test [3], 9.32%; in test [4], 9.03%; in test [5], 8.74%.
For `CC1(C(=O)NC2CCCCCCC2)Cn2c(ccc2-c2ccco2)C(=O)N1Cc1ccccc1Cl` (stereo not given), in that order: -8.57%, 2.92%, -3.17%, -13.1% and -6.21%.
`O=C1OC[C@@H]2CCN(Cc3ccc(C(F)(F)F)cc3)Cc3ccc(F)cc3N12`: the activity change, negative = inhibition was 157% in test [1]; -9.14% in test [2]; -6.44% in test [3]; -14.4% in test [4]; -9.21% in test [5].
With `O=C(OCCN1CCOCC1)C1(c2ccccc2)CCCCC1`, the activity change, negative = inhibition in test [1] was 0.864%; in test [2] it was 10.1%; in test [3] it was 4.57%; in test [4], -5.58%; in test [5] it was 10.7%.
The like results for `CC(C)C[C@H](NC(=O)[C@H](Cc1ccccc1)NC(=O)c1cnccn1)B(O)O` were, in that order, -1.76%, 0.569%, 10.7%, -14.7% and -4.77%.
The like results for `O=C(c1ccc(C(F)(F)F)cc1)N1CC2CC(C1)[C@H]1CCCC(=O)N1C2` (stereo not given in full) were, in that order, -1.52%, -4.15%, -2.18%, -1.32% and -2.73%.
As to `CCc1ccc(NC(=O)CSc2nnc3n(CCc4ccccc4)c(=O)c4ccccc4n23)cc1`, the activity change, negative = inhibition was determined as 3.66% in test [1]; 1.36% in test [2]; 5.59% in test [3]; 1.59% in test [4]; 3% in test [5].
For `CCOCC(=O)N1CCC(Nc2cccn3ncnc23)CC1`, in that order: -41.9%, -22.2%, -2.71%, -5.76% and -12.5%.
The like results for `COc1ccc(C(=O)Nc2cnc(-c3ccc(Cl)cc3)nc2)cc1` were, in that order, -2.78%, -2.76%, -1.97%, -4.79% and -7.49%.
For `CC(C)CCNC(=O)C1(C)Cn2c(cc3ccccc32)C(=O)N1Cc1cccs1` (stereo not given), in that order: 5.43%, 0%, 4.82%, -2.34% and 0.47%.
In the case of `CC[C@H]1OC(=O)[C@H](C)[C@@H](O[C@H]2C[C@@](C)(OC)[C@@H](O)[C@H](C)O2)[C@H](C)[C@@H](O[C@@H]2O[C@H](C)C[C@H](N(C)C)[C@H]2O)[C@@](C)(O)C[C@@H](C)[C@@H]2N[C@@H](COCCOC)OC([C@H]2C)[C@]1(C)O`, the activity change, negative = inhibition in test [1] is 1.02%; in test [2] it was 3.92%; in test [3], 10.1%; in test [4] it was -9.91%; in test [5], 5.11%.
Consider `CCOC(=O)c1ccc(NC(=O)CN2CCCCC2)cc1`, for which the activity change, negative = inhibition was -0.126% in test [1]; -3.08% in test [2]; -2.84% in test [3]; -12% in test [4]; 0.438% in test [5].

The values above are taken from PubChem BioAssay AID1745853 (National Center for Advancing Translational Sciences (NCATS), 2022).
